Source: the supplement of paper PMC12632987
In all, about 4,500 sequences were measured (“median log2 fold change of GCK-ALFA target abundance (FLAG IP / Myc IP barcode read proportion)”: median about 0.078, lowest 2% from about -0.6 on). This is one part of the list.

B1: GBRAP_160_4469 (protein)
chain: SAEVKALVEELRKEVEEELEKLKDESPEQIANGVEVVVGSHLMEWSEAGKITDEQEDILIKAMDEIRKLAEEKKDASPEEVIKEIRKIIEKAAEEILKAS
B2: GBRAP_128_3346 (protein)
chain: VDEEKVAKAEELIEAMLTASPEEAKKLADELMELLLTMSLEEVEEVVKKALELLPKYTAEQLDILADALRKHRPLFTPEKAEVVAELQVEALNLAVEKEE
B3: GBRAP_11_2855 (protein)
chain: KKEKLKEIAELAKKAIELLKELLKKGVDDKELQKKIKELLEKLLELVKKYLDEASVKLAKEALESFKKSLEDPENKEKYINESLAFLEVLLGDVLLEIDE
B4: GBRAP_83_6898 (protein)
chain: KEKVVVVAPADRGEEAVDAAYDLEKEEGYEVELEIIATPEEFDLVEAAVERLAELGLEIPVTVVLRGATPEEAEALRARLEAIAARHGVNIPIEVILEEP
B5: GBRAP_160_4107 (protein)
chain: SAGLEAILKDFEEVLKEVLELWGEVSPEELAAYFETELGSVIMDAMENYGLSDETGDRLLDIVDKARERLLENGGKSLEEVKAILEETLEEIRKALEESD
B6: GBRAP_125_3074 (protein)
chain: ADAAALEDLALIARALGLSEGEVAELVRLAAASSLKQALIALLMAEGAEEAADAVAELTEAQAREVLAELAARLRAHPDLTKEEVIAAIKELAEAARAAA
B7: GBRAP_11_2704 (protein)
chain: KKEKLEEGAKLAEEAAKLVEELLEKGVDDEELRKELEKKLEELLKLTKKYGNEAEKKLAEIAYELWKEAQEDKENAEQYLKELLATLRVLEGQYLLEIEE
B8: GBRAP_52_6317 (protein)
chain: MKEEAEKLAEELVKLVKEGKEEEAKALAKKIAEEWSEEFIKLLAEVLAERIKTADEEERDALMEAAEILAEALEEAGWDPAFASDIIARAAKAAYEAELK
B9: GBRAP_160_4582 (protein)
chain: SAALEALKAAVDEEAEEAKKLVEGETAEQRANIVAVAGGRLIMEFSENPEVSDELLDRVDAIYDDLVATILANPNITDEEVKALIDKARDEIIAALDESF
B10: GBRAP_53_6397 (protein)
chain: SAATIAALLAELRALIAEVDADPTLDPEEVAARAGELLRAAVAAGAPAAELTALARELAAAVAARGLGVEVGTRLAATAAAAGAEEVAAVFTEAAVEDLE
B11: GBRAP_80_6810 (protein)
chain: AEERLEENLKKIEELDPELAERLKKIIERAKAAGVPVETLAELAEALLELLKVDKELAKEMLDELEEFLEEEIARGDTAEAEATLRVFAGEMLLEVEELE
B12: GBRAP_43_5760 (protein)
chain: SKELVDGAFDFALLALEEPSISQEQKVKAIKGAFDLAADEGYADKEKVLEVVKAAGKSLSKEELEKLAKHLKELSKKYPELKETLDEALKILEKAIAEKK
B13: GBRAP_137_3644 (protein)
chain: PNVTITVKTEGDLVEITITFDDPEKAEEVAELITDIAVENGALAISNEIKEDGTLESTIWVPKEKADALIDALVDALTTEFGATVTVIDENTGEVTTVEA
B14: GBRAP_184_5326 (protein)
chain: STLEVHIPNASLEEIVAQVAAAAKQAAAAGANLTLYIDAEGFSSEELVALLEAIGEIAKAEGIKNVTIGLDVEVDEETADKLIEVADKYGIKLTLALSDE
B15: GBRAP_52_6112 (protein)
chain: MREEMERLVEEILALVKAGRLEEARALLREFARRANEEEIELFAEALAERARRAAPEDWDAVWRLAEMAEEELLAEGWPEELADLLLAKTAAALYEREQA
B16: GBRAP_57_6477 (protein)
chain: SERLERVEELADRLEALVRAKGPLADIIAAAEALIAELPEDAELYVIDANGEAVLLAGDRAARAAAAAARLEALAAAGDWDGLLRFVRTLAGDAIATVLE
B17: GBRAP_128_3320 (protein)
chain: MDEELLAEFKELAEAAKKADLPTLAKLTAEMVALIGQADAETREEMAEIFRKALEELDAEKLDVVADTLRAEMPKLDPEAARVVADLAVDALNLAEEKEE
B18: GBRAP_26_5488 (protein)
chain: FEEEILDELEERTREILADEDPTLRAAVIAEAIDLLLEAIEEFEKNANDKEKQEKAKEEALKEMEEFLEKMGLSEEKREKLVEALREALEKALKEIQKKA
B19: GBRAP_166_4964 (protein)
chain: SEEELVEELKERIRELAEKAKTANYEEKLELLAEAAEAIREAREEGLSEESLRELLRLTLEEFSKVGLTLSTVAGALTILADLDEEEIDILEEVIEEVKA
B20: GBRAP_35_5522 (protein)
chain: DSDTLTVEMLVATIEDLTLAVPDMDVETAVQIATQLIKAAEELAKDIKNNVEGLKKLRDALAKLRDALEKHYGDDPLAQQVIAQIDKLIAEIDKMIKEAK
B21: GBRAP_39_5686 (protein)
chain: EEEEENEDVVSYLEGLAAKYLYETGKSLEEAFEEAKKILLKLAEEHPELKELIEKLIELAEKKGEEAKLALIGIAVLVKQGTPLEEIKENIEKVIAYFES
B22: GBRAP_184_5275 (protein)
chain: KVIHVDIVAETGEEAIKEVKKAAEKAKKEGAKLKINILLENSSVEETIKLFELLKKLKEEGIIEDAVVGIENEKTEEEIDTLLKAADEAGVKLVLAISDE
B23: GBRAP_11_2780 (protein)
chain: KKEKLEEIIKKAEEAIKLLDKLLEEGLDNEELRKELEKALKELRKLVEENMDEGTKKLVEIAEELWKKFLEDEENKEEYLEQMKAALRVLRGQALLELEE
B24: GBRAP_160_4161 (protein)
chain: SEEAEKLIEEVEELAKKAIEDIEGQSIEERAVIIAGYFGEIIMTLFESPVVSDETVDFAVKLRDELVKWLKENPDASLEEIKKKIEEVVKKIKEKIKEDA
B25: GBRAP_160_4693 (protein)
chain: SEKVEKFKKFVEEEFEEVVSLFDEVSREELAAAVRVAFGEIILEAEELGLLTDELDKVIDEEEEKIVNAILTNPNLTKEELKEMLEKAKEEIMAEVEKAS
B26: GBRAP_128_3275 (protein)
chain: MNEEIVKKAREFVEKLKKADEEEARKIAEEFAEWLGSVSTEEAEQAVDVIEERLDELSAEQLEILADVLEKHRDKFDPEKANLVAGLQVEALNEAEEKEE
B27: GBRAP_52_5925 (protein)
chain: SSERLREIAQKILDAALAGDEEGMKKLIEEVAKTLSDEEIKGVIRELAELVAELGPEHYDVFAKIADLLEDAVEKAGRDVELIQAAIAEGFGLLYDAEQA
B28: GBRAP_160_4426 (protein)
chain: SAKLEKAKKLITEIVEETAEMMEGESAEERIVLVRVAEGEILLELEELGLLTDEIEAVIDETFAAIAAHIAAHPDISQEELRALLKAAEEKIKKQLEKEA
B29: GBRAP_52_6144 (protein)
chain: MKEKIEAMAKEIVAALVAGDEEKARALLREAIKTFSLEELLELAKEAAKLIAKQGPDAEDLLARFMELWEEVGEEEGLEDETIDLIISTAAKTFVEEQAK

target: GABARAP, O95166; experiment: median log2 fold change of GCK-ALFA target abundance (FLAG IP / Myc IP barcode read proportion) (log2 ratio); each designed protein is fused to an ALFA-tag nanobody in HEK293 cells to bring the named protein to FLAG-tagged glucokinase (GCK); Myc marks an untargeted standard; higher = target protein stabilised (more abundant); conditions: target protein: 3xFLAG-MCP-GCK-ALFA reporter; HEK293 landing pad (RPLP)
How it was run: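 The readout is target abundance, the per-binder median log2 ratio of FLAG to Myc barcode read proportions. It came from HEK293 landing-pad cells carrying a recombined ALFA-nanobody-fused binder library, induced with 2 μg mL^−1 doxycycline and transfected with a plasmid for a FLAG-tagged target and a Myc-tagged standard. After 48 h, lysates were immunoprecipitated with anti-FLAG and anti-Myc, and circular RNA barcodes were reverse transcribed, amplified and sequenced. Each barcode needed a proportion of at least 10^−7 in both replicates and each binder at least 3 barcodes per replicate, a pseudocount of 10^−6 was added, and the replicates were pooled.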

GABARAP, O95166, sequence (O95166 whole entry, the tested form may be a part): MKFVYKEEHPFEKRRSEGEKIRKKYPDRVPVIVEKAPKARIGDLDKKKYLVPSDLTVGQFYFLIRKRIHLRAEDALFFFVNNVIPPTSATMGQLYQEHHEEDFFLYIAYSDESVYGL

Binder	median log2 fold change
B1	0.254
B2	0.131
B3	0.193
B4	0.191
B5	-0.108
B6	0.207
B7	0.375
B8	0.323
B9	-0.0806
B10	0.226
B11	-0.27
B12	0.201
B13	0.0996
B14	0.171
B15	-0.121
B16	0.22
B17	0.0824
B18	0.257
B19	-0.131
B20	-0.0356
B21	0.293
B22	-0.234
B23	0.225
B24	0.164
B25	-0.166
B26	0.242
B27	0.165
B28	-0.243
B29	0.125
